# Some of the results follow.
# Tests used:
# Assay in all cases: glycan array binding signal (z-score within array); higher = stronger binding
# Settings in all cases: glycan notation: IUPAC condensed, linker removed
# [1] = target: GalNAc(b1-4)GlcNAc(b1-2)Man(a1-3)[GalNAc(b1-4)GlcNAc(b1-2)Man(a1-6)]Man(b1-4)GlcNAc(b1-4)GlcNAc
# In short: (§1)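 From the Consortium for Functional Glycomics database, 3228 arrays were curated, keeping only those whose protein sequence was available. Binding is given as a within-array Z-score averaged across arrays sharing a protein sequence and across linkers. Negative Z-scores can be read as non-binding.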
# [2] = target: GalNAc(b1-4)GlcNAc(b1-3)GalNAc(b1-4)GlcNAc
# In short: as §1
# GalNAc(b1-4)GlcNAc6S = target: GalNAc(b1-4)GlcNAc6S
# In short: as §1
# GalNAc(b1-6)GalNAc = target: GalNAc(b1-6)GalNAc
# In short: as §1
# GalNAc3S(b1-4)GlcNAc = target: GalNAc3S(b1-4)GlcNAc
# In short: as §1
# GalNAc3S(b1-4)GlcNAc3S = target: GalNAc3S(b1-4)GlcNAc3S
# In short: as §1
# [3] = target: GalNAc3S(b1-4)[Fuc(a1-3)]GlcNAc
# In short: as §1
# GalNAc4S6S(b1-4)GlcNAc = target: GalNAc4S6S(b1-4)GlcNAc
# In short: as §1
# GalNAc6S(b1-4)GlcNAc = target: GalNAc6S(b1-4)GlcNAc
# In short: as §1
# Glc(a1-4)Glc = target: Glc(a1-4)Glc
# In short: as §1
# [4] = target: Glc(a1-4)Glc(a1-4)Glc(a1-4)Glc
# In short: as §1
# Glc(a1-6)Glc(a1-6)Glc = target: Glc(a1-6)Glc(a1-6)Glc
# In short: as §1
# [5] = target: Glc(a1-6)Glc(a1-6)Glc(a1-6)Glc
# In short: as §1
# Glc(b1-4)Glc = target: Glc(b1-4)Glc
# In short: as §1
# Glc(b1-6)Glc = target: Glc(b1-6)Glc
# In short: as §1
# GlcA(b1-3)Gal = target: GlcA(b1-3)Gal
# In short: as §1
# GlcA(b1-3)GlcNAc = target: GlcA(b1-3)GlcNAc
# In short: as §1
# GlcA(b1-6)Gal = target: GlcA(b1-6)Gal
# In short: as §1
# [6] = target: GlcA3S(b1-3)Gal(b1-4)GlcNAc(b1-2)Man
# In short: as §1
# [7] = target: GlcA3S(b1-3)Gal(b1-4)GlcNAc(b1-3)Gal(b1-4)Glc
# In short: as §1
# [8] = target: GlcNAc(a1-3)Gal(b1-4)GlcNAc
# In short: as §1
# [9] = target: GlcNAc(a1-4)Gal(b1-3)GlcNAc
# In short: as §1
# [10] = target: GlcNAc(a1-4)Gal(b1-4)GalNAc
# In short: as §1
# [11] = target: GlcNAc(a1-4)Gal(b1-4)GlcNAc
# In short: as §1
# [12] = target: GlcNAc(a1-4)Gal(b1-4)GlcNAc(b1-3)Gal(b1-4)Glc
# In short: as §1
# [13] = target: GlcNAc(a1-4)Gal(b1-4)GlcNAc(b1-3)Gal(b1-4)GlcNAc
# In short: as §1
# [14] = target: GlcNAc(a1-4)Gal(b1-4)GlcNAc(b1-3)Gal(b1-4)GlcNAc(b1-3)Gal(b1-4)GlcNAc
# In short: as §1
# [15] = target: GlcNAc(a1-4)Gal(b1-4)GlcNAc(b1-3)Gal(b1-4)[Fuc(a1-3)]GlcNAc(b1-3)Gal(b1-4)[Fuc(a1-3)]GlcNAc
# In short: as §1
# [16] = target: GlcNAc(a1-6)Gal(b1-4)GlcNAc
# In short: as §1
# [17] = target: GlcNAc(b1-2)Gal(b1-3)GalNAc
# In short: as §1
# [18] = target: GlcNAc(b1-2)Man(a1-3)[GlcNAc(b1-2)Man(a1-6)]Man(b1-4)GlcNAc(b1-4)GlcNAc
# In short: as §1
# [19] = target: GlcNAc(b1-2)Man(a1-3)[GlcNAc(b1-2)Man(a1-6)]Man(b1-4)GlcNAc(b1-4)[Fuc(a1-6)]GlcNAc
# In short: as §1
# [20] = target: GlcNAc(b1-2)Man(a1-3)[GlcNAc(b1-4)][GlcNAc(b1-2)Man(a1-6)]Man(b1-4)GlcNAc(b1-4)GlcNAc
# In short: as §1
# [21] = target: GlcNAc(b1-2)Man(a1-3)[GlcNAc(b1-4)][GlcNAc(b1-2)Man(a1-6)]Man(b1-4)GlcNAc(b1-4)[Fuc(a1-6)]GlcNAc
# In short: as §1
# [22] = target: GlcNAc(b1-2)[GlcNAc(b1-4)]Man(a1-3)[GlcNAc(b1-2)Man(a1-6)]Man(b1-4)GlcNAc(b1-4)GlcNAc
# In short: as §1
# [23] = target: GlcNAc(b1-2)[GlcNAc(b1-4)]Man(a1-3)[GlcNAc(b1-4)][GlcNAc(b1-2)Man(a1-6)]Man(b1-4)GlcNAc(b1-4)GlcNAc
# In short: as §1
# [24] = target: GlcNAc(b1-2)[GlcNAc(b1-4)]Man(a1-3)[GlcNAc(b1-4)][GlcNAc(b1-2)[GlcNAc(b1-6)]Man(a1-6)]Man(b1-4)GlcNAc(b1-4)GlcNAc
# In short: as §1
# [25] = target: GlcNAc(b1-2)[GlcNAc(b1-4)]Man(a1-3)[GlcNAc(b1-4)][GlcNAc(b1-2)[GlcNAc(b1-6)]Man(a1-6)]Man(b1-4)GlcNAc(b1-4)[Fuc(a1-6)]GlcNAc
# In short: as §1
# [26] = target: GlcNAc(b1-2)[GlcNAc(b1-6)]Man(a1-6)[GlcNAc(b1-2)Man(a1-3)]Man(b1-4)GlcNAc(b1-4)GlcNAc
# In short: as §1
# [27] = target: GlcNAc(b1-2)[GlcNAc(b1-6)]Man(a1-6)[GlcNAc(b1-2)Man(a1-3)]Man(b1-4)GlcNAc(b1-4)[Fuc(a1-6)]GlcNAc
# In short: as §1
# [28] = target: GlcNAc(b1-2)[GlcNAc(b1-6)]Man(a1-6)[GlcNAc(b1-4)][GlcNAc(b1-2)Man(a1-3)]Man(b1-4)GlcNAc(b1-4)GlcNAc
# In short: as §1
# GlcNAc(b1-3)Fuc = target: GlcNAc(b1-3)Fuc
# In short: as §1
# GlcNAc(b1-3)Gal = target: GlcNAc(b1-3)Gal
# In short: as §1
# [29] = target: GlcNAc(b1-3)Gal(b1-3)GalNAc
# In short: as §1
# GlcNAc(b1-3)Gal(b1-4)Glc = target: GlcNAc(b1-3)Gal(b1-4)Glc
# In short: as §1
binder,measurement,setting,value
Clrb (Mus musculus) (protein) ITGATKTEQIPVNKTYAACPQNWIGVENKCFYFSEYPSNWTFAQAFCMAQEAQLARFDNQDELNFLMRYKANFDSWIGLHRESSEHPWKWTDNTEYNNTIPIRGEERFAYLNNNGISSTRIYSLRMWICSKLNSYSLHCQTPFFPSGTKHHHHHHHHG,glycan array binding signal (z-score),[1],4.64
same,glycan array binding signal (z-score),[2],2.91
same,glycan array binding signal (z-score),GalNAc(b1-4)GlcNAc6S,3.08
same,glycan array binding signal (z-score),GalNAc(b1-6)GalNAc,0.452
same,glycan array binding signal (z-score),GalNAc3S(b1-4)GlcNAc,0.428
same,glycan array binding signal (z-score),GalNAc3S(b1-4)GlcNAc3S,-0.394
same,glycan array binding signal (z-score),[3],-0.447
same,glycan array binding signal (z-score),GalNAc4S6S(b1-4)GlcNAc,-0.332
same,glycan array binding signal (z-score),GalNAc6S(b1-4)GlcNAc,4.38
same,glycan array binding signal (z-score),Glc(a1-4)Glc,-0.439
same,glycan array binding signal (z-score),[4],-0.498
same,glycan array binding signal (z-score),Glc(a1-6)Glc(a1-6)Glc,-0.34
same,glycan array binding signal (z-score),[5],-0.192
same,glycan array binding signal (z-score),Glc(b1-4)Glc,-0.276
same,glycan array binding signal (z-score),Glc(b1-6)Glc,-0.417
same,glycan array binding signal (z-score),GlcA(b1-3)Gal,-0.227
same,glycan array binding signal (z-score),GlcA(b1-3)GlcNAc,-0.39
same,glycan array binding signal (z-score),GlcA(b1-6)Gal,-0.328
same,glycan array binding signal (z-score),[6],-0.463
same,glycan array binding signal (z-score),[7],-0.375
same,glycan array binding signal (z-score),[8],5.77
same,glycan array binding signal (z-score),[9],3.81
same,glycan array binding signal (z-score),[10],0.252
same,glycan array binding signal (z-score),[11],4.2
same,glycan array binding signal (z-score),[12],2.34
same,glycan array binding signal (z-score),[13],1.08
same,glycan array binding signal (z-score),[14],5.29
same,glycan array binding signal (z-score),[15],2.1
same,glycan array binding signal (z-score),[16],-0.406
same,glycan array binding signal (z-score),[17],0.667
same,glycan array binding signal (z-score),[18],-0.293
same,glycan array binding signal (z-score),[19],-0.258
same,glycan array binding signal (z-score),[20],1.62
same,glycan array binding signal (z-score),[21],4.51
same,glycan array binding signal (z-score),[22],-0.35
same,glycan array binding signal (z-score),[23],4.02
same,glycan array binding signal (z-score),[24],1.54
same,glycan array binding signal (z-score),[25],-0.007
same,glycan array binding signal (z-score),[26],-0.254
same,glycan array binding signal (z-score),[27],-0.494
same,glycan array binding signal (z-score),[28],3.49
same,glycan array binding signal (z-score),GlcNAc(b1-3)Fuc,1.92
same,glycan array binding signal (z-score),GlcNAc(b1-3)Gal,-0.241
same,glycan array binding signal (z-score),[29],-0.22
same,glycan array binding signal (z-score),GlcNAc(b1-3)Gal(b1-4)Glc,-0.237

# — the supplement of paper PMC8728848
